# Results: publication PMC4336329 (PLoS ONE, 2015)
# In all, about 310,000 compounds went through this assay and about 14,000 (4.5%) showed an effect of 50% or more. The effect is printed as a negative number. The list shows a part of the results.
# Target: human ether-à-go-go-related gene (hERG) potassium channel (human, UniProt Q12809)
# Assay: primary screen, population patch clamp on CHO cells stably expressing hERG
# 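Note: peak tail current of the secondary pulse compared with the same well before compound.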
# Chain of human ether-à-go-go-related gene (hERG) potassium channel (Q12809 whole entry, looked up): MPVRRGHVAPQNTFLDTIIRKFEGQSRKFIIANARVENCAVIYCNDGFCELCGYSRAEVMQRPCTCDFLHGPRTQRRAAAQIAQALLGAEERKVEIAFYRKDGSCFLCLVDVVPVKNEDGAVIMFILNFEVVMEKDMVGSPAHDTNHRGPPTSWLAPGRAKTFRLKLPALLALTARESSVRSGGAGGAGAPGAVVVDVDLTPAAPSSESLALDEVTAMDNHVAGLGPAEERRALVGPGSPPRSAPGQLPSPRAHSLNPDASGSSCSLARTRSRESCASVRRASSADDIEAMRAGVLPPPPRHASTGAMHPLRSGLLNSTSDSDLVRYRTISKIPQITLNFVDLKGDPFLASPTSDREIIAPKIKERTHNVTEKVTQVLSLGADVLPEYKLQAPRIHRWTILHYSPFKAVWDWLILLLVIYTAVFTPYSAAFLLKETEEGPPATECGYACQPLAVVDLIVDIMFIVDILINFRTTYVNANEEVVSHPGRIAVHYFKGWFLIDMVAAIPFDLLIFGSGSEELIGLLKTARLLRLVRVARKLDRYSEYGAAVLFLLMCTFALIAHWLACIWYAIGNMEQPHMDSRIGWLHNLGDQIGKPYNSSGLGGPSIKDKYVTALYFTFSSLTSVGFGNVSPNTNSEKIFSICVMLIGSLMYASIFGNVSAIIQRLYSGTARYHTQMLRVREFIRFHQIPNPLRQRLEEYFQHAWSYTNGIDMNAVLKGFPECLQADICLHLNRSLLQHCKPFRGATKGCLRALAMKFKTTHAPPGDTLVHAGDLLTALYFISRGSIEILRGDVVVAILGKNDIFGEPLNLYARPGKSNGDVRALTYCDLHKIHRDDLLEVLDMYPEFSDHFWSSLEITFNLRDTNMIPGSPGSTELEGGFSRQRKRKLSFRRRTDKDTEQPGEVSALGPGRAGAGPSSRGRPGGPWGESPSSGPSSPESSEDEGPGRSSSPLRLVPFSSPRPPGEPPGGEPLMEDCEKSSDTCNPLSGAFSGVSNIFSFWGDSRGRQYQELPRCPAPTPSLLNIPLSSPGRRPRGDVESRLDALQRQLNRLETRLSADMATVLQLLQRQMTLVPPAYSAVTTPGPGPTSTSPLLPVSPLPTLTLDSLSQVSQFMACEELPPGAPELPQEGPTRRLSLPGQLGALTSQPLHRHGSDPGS
row,SMILES,"hERG current change (%, negative = inhibition) at 10uM [%]"
1,CCSc1nnc(NC(=O)C2Cc3ccccc3CN2C(=O)c2ccco2)s1 (stereo not shown),-10.3
2,CCCCNS(=O)(=O)c1ccc(S(=O)(=O)n2cnc3ccccc32)cc1,16
3,O=C(Nc1ccc(CN2CCS(=O)(=O)CC2)cc1)c1ccc(C(F)(F)F)cc1,-4.46
4,CCN(CC(=O)NCCC1=CCCCC1)S(=O)(=O)c1ccccc1,-20.8
5,CCOC(=O)c1cn(Cc2cccc(Cl)c2)nn1,-5.12
6,CC1CCc2c(sc(NC(=O)c3ccc(Cn4cc(Br)cn4)o3)c2C(N)=O)C1 (stereo not shown),9.2
7,Cc1nc(Nc2cccc(O)c2)c2c3c(sc2n1)CCC3,-1.85
8,OCCC1CN(Cc2cnn(-c3ccccc3Cl)c2)CCN1Cc1ccsc1 (stereo not shown),-11.7
9,Cn1[nH]c(C(F)(F)F)c(C=Nc2ccc(Cl)cc2)c1=O,2.79
10,COCCCN1C(=O)/C(=C\c2cccs2)C(C(=O)OC)=C1C,-31.9
11,COC(=O)CNC(c1ccccc1)c1cc(Br)ccc1NC(=O)CNC(=O)OCc1ccccc1 (stereo not shown),1.71
12,CC(Sc1ccccc1)C(=O)N/N=C/c1ccccc1 (stereo not shown),-4.23
13,CC1(c2ccc(OC(F)F)cc2)NC(=O)N(CC(=O)Nc2ccc(Cl)cc2F)C1=O (stereo not shown),-28
14,O=C(O)c1ccc(CN2C(=O)c3ccccc3S2(=O)=O)cc1,16.4
15,COC(/C=C/Nc1ccc(Br)cc1)=C(C#N)C#N,-39.3
16,CCOCCn1c(SCCc2ccccc2)nc2c1c(=O)[nH]c(=O)n2C,-24
17,Cc1cc(SCC#N)n2nc(C)c(-c3ccccc3)c2n1,-1.69
18,COc1ccc(OC)c(CNC(=O)CCCn2ccc3cc(S(=O)(=O)N4CCCC4)ccc32)c1,-11.4
19,CCOC(=O)c1c(C)[nH]c(C)c1C(=O)CSc1nc2ccccc2c(=O)n1-c1ccccc1C,0.835
20,C=CCn1c(COc2ccccc2)nnc1SCC(=O)N/N=C/c1ccc(C)cc1,-39.9
21,Cc1ccc([N+](=O)[O-])c(OCCN2CCc3ccccc3C2)c1.O=C(O)C(=O)O,-23.3
22,CC(C)c1ccc(OCC(=O)Nc2ccncc2)cc1,-8.44
23,c1ccc2c(c1)sc1nnnn12,-1.4
24,C/C(=N\NS(=O)(=O)c1ccc(Cl)c([N+](=O)[O-])c1)c1ccc(C)o1,3.01
25,Cn1c(SCC(=O)c2ccccc2)nnc1-c1cccs1,-20.2
26,Cc1ccc(N=Cc2c(O)n(-c3cc(Cl)ccc3N3CCOCC3)c(=O)c3ccccc23)cc1C,3.86
27,O=C(COc1ccc2ccc(=O)oc2c1)N1CCc2ccccc21,4.35
28,O=c1c2cc(Br)ccc2nc(-c2ccc([N+](=O)[O-])cc2)n1O,41.4

row,SMILES,"hERG current change (%, negative = inhibition) at 10uM [%]"
1,CCOC(=O)N1CCN(C(=O)c2ccccc2NC(C)=O)CC1,11.2
2,CN(Cc1ccccc1)Cc1nc2c([nH]1)c(=O)n(C)c(=O)n2C,-0.0888
3,CC(=O)Nc1ccc(CN2CCC(CO)(CCOc3ccccc3)CC2)cc1,-69.9
4,CCOC(=O)N1CCN(C(=O)CSC2=NS(=O)(=O)c3cc(Cl)ccc3N2)CC1,17.5
5,CC1(C)CC(=O)C(C(N)=NC(=O)c2ccccc2)=C(O)C1,11.4
6,CCCc1nc2ccccc2c(=O)n1CC(=O)c1ccccc1,-3.78
7,Cc1nnc(SCC(=O)NC(C)(C)C)n1NCc1c(F)cccc1Cl,10.5
8,Cc1ccc(C(=O)Nc2ccccc2C(=O)N2CCCCCC2)cc1,-1.97
9,COc1cc(C(C(=O)NC2CCCCC2)N(Cc2ccco2)C(=O)c2cnccn2)cc(OC)c1OC (stereo not shown),21.4
10,COc1cccc(C(=O)Nc2ccc(N(C)C)cc2)c1OC,16.2
11,O=C(CC1Oc2ccccc2NC1=O)NCCCN1CCN(C2CCCCC2)CC1 (stereo not shown),-3.28
12,COc1ccc(CCN(C)C(=O)c2cncc(Br)c2)cc1OC,30.1
13,CC(C)Oc1ccc(CNC(=S)N/N=C/c2cccnc2)cc1,2.73
14,CCOC(=O)Cc1c(Sc2ccccc2)c2cc(C)ccc2n1C,-6.46
15,O=[N+]([O-])c1cccc(/C=N/Nc2nc(C(Cl)(Cl)Cl)nc3ccccc23)c1,0.843
16,O=C(OC1CCCCC1=O)c1ccc(S(=O)(=O)Nc2ccccc2)cc1 (stereo not shown),0.644
17,O=C(Cc1ccc(F)cc1)Nc1ccccc1Sc1ccccc1,1.73
18,COc1ccc(Cl)cc1NC(=O)CN(C)C(=O)CCCc1c[nH]c2ccccc12,1.11
19,COc1cc2nc(CN3CCC(C(O)(c4ccccc4)c4ccccc4)CC3)[nH]c(=O)c2cc1OC,-7.94
20,Cc1cccc(NCc2ccccc2O)c1C,6.38
21,COC(=O)C(C)Sc1nnc(Cc2cc(=O)[nH]c(=O)[nH]2)n1-c1ccc(OC)cc1 (stereo not shown),-0.588
22,O=C(Nc1cccc([N+](=O)[O-])c1)C12CC3CC(C1)CC(n1cnc([N+](=O)[O-])n1)(C3)C2,-67.8
23,O=C(CC1Nc2ccccc2NC1=O)Nc1ccccc1NC(=O)CC1Nc2ccccc2NC1=O (stereo not shown),4.83
24,CCOC(=O)c1ccccc1NC(=O)c1ccc(N(C)S(C)(=O)=O)cc1,13.6
25,COc1ccc(C(CNC(=O)C(C)Oc2ccc(Br)cc2)N2CCCC2)cc1 (stereo not shown),-37.2
26,Nc1c(-c2ccc(Cl)cc2)cnn1-c1ccccc1,11.2
27,COc1ccc(NC(=O)CSCC(=O)Nc2sccc2C#N)cc1,1.85
